Over roughly 33,000 sequences, “E-score (-0.5 to 0.5)” has its median near -0.043; the highest 2% begin near 0.37. Some of the results follow.
Each sequence was assayed against T1, Upc2 (UniProt Q12151) (assay: PBM E-score (8-mer binding enrichment) (E-score (-0.5 to 0.5)); higher = stronger / more preferred TF binding; most listed sequences are background and not binding sites). Settings: protein concentration: 200 nM; construct: GST-full length.
T1 sequence: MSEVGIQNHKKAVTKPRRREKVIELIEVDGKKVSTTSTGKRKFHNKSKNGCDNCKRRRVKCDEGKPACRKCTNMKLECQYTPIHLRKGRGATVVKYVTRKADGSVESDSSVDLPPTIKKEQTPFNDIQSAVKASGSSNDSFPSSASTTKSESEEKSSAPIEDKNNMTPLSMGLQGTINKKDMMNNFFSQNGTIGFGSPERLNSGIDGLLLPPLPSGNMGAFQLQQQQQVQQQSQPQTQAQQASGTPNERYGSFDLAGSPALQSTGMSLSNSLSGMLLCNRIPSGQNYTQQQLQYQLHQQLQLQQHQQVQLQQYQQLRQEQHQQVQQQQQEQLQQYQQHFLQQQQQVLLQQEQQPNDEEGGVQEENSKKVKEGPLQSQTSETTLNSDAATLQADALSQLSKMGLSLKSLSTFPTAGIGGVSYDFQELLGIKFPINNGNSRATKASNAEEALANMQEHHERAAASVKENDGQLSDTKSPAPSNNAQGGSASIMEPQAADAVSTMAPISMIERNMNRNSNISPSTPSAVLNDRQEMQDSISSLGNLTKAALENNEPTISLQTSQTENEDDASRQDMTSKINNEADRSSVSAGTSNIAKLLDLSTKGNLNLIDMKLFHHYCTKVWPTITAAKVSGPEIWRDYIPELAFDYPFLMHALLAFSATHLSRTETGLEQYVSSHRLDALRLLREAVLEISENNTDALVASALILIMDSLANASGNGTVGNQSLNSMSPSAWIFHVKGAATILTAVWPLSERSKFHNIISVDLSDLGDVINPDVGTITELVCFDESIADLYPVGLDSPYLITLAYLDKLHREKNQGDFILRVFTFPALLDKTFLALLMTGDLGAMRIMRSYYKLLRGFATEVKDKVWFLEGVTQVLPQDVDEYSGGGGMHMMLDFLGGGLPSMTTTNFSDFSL
Outline: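 Full-length yeast transcription factors or their DNA-binding domains, GST-tagged and expressed with PURExpress, were applied at about 100-200 nM to universal all-10-mer Agilent arrays. These arrays had been made double-stranded by primer extension on fresh or once-stripped slides. Detection used fluorescent anti-GST, normalisation used masliner, and E-scores for ungapped eight-base words pooled with reverse complements came from the Universal PBM Analysis Suite.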

| Sequence | PBM E-score |
| --- | --- |
| ACAAAATC | -0.0623 |
| ACTTGATG | -0.175 |
| GGGAATCA | -0.215 |
| CAAAGCCG | 0.06 |
| ACAAAAGT | -0.0314 |
| TAAAGGCA | -0.0239 |
| AAGGGACG | -0.144 |
| CCGTGTCC | -0.0488 |
| ACGTATCA | 0.254 |
| CCAGGTAA | 0.0585 |
| AACTAATA | 0.128 |
| CAGCGCCG | -0.0432 |
| CCCCTTCG | -0.0374 |
| GCACATAA | 0.0187 |
| CCAGGTAC | 0.151 |
| AACCTGCC | -0.0992 |
| CGGAGAAA | 0.158 |
| CAGCAGAC | -0.0929 |
| TATGTGAA | -0.0221 |
| GCCTAACC | 0.0492 |
| CAAAGTCC | -0.11 |
| TAGAGTAA | 0.0614 |

| Sequence | PBM E-score |
| --- | --- |
| AGATCAAG | 0.0695 |
| AAGGTTCG | 0.0908 |
| GTTGGCAA | 0.0589 |
| TCCGTTAA | 0.264 |
| CGGTTCCC | 0.0304 |
| GGGACAAA | -0.18 |
| CTCCAGAC | 0.0472 |
| TAGGTTAA | -0.118 |
| CAACCGCC | -0.167 |
| CTTATGTC | -0.0966 |
| CTATAGCC | -0.175 |
| CGGTGCAC | 0.0462 |
| ACTATTCA | -0.0687 |
| AAGCGCTT | 0.0453 |
| CCGTATAC | 0.475 |
| CCGAGACA | -0.0494 |
| ATCCGGTG | 0.083 |
| CATGGCCC | -0.168 |
| AGGGGCCC | -0.251 |
| GCACAAGC | -0.0365 |
| CTAATTAG | 0.0658 |
| ATTCAGAA | -0.144 |

| Sequence | PBM E-score |
| --- | --- |
| AGAGCTAC | -0.203 |
| CGGCACTC | -0.264 |
| CCGAAGGA | -0.0603 |
| CACGATCC | 0.17 |
| GACTTTCA | -0.187 |
| GACAACCC | 0.0735 |
| AGCGGATG | 0.0282 |
| ATACACGG | 0.115 |
| TGATAGCA | 0.0194 |
| CTGTCCGC | 0.0788 |
| AAATGATA | 0.12 |
| ATGTAAAT | -0.0283 |
| CCTCTTGA | -0.204 |
| GGCCTGTA | -0.196 |
| GTGGGGAA | -0.0782 |
| AAGGCCAT | 0.0801 |
| CTGCGCAC | -0.147 |
| GTGTGTAA | -0.0869 |
| ACGATCGT | 0.438 |
| AGAACCAC | -0.128 |
| CTCAATTC | 0.128 |
| CTCACGAG | 0.0684 |

| Sequence | PBM E-score |
| --- | --- |
| AGAGGTTC | 0.0141 |
| ATCATGCA | -0.266 |
| GGTGTTAA | 0.0966 |
| GCCGGTCA | -0.19 |
| GCGAAACA | 0.0326 |
| ACCATTGC | -0.00631 |
| CGAGTTAC | 0.185 |
| GCTAAGCA | -0.159 |
| CGTTGTAA | 0.0415 |
| GTAAGATA | 0.15 |
| ACCCTGGC | -0.206 |
| ATATGGTA | 0.158 |
| AACGTAGT | 0.171 |
| CACATTGA | -0.0226 |
| GGACGAAC | 0.0508 |
| CCGAATAC | 0.228 |
| AAATAATG | 0.0432 |
| CAACTTTA | 0.104 |
| GAAACGGC | 0.187 |
| CCAAGCAC | -0.21 |
| GCCCGAGA | -0.175 |
| GATCACAA | -0.0358 |

| Sequence | PBM E-score |
| --- | --- |
| ATATACAA | -0.0498 |
| TATCAAAA | -0.0205 |
| ACTACATC | -0.156 |
| CTCGTCAC | 0.0127 |
| CTAACCTC | -0.0576 |
| AGGCCCAT | -0.117 |
| GAGGCCCC | -0.229 |
| AAAGGAAC | 0.182 |
| GCGCCCAA | -0.00323 |
| TCTATAGA | -0.316 |
| CCGAGAGC | 0.154 |
| GCATGGCA | -0.138 |
| CACCGCAC | -0.0191 |
| GCGAAACC | 0.0361 |
| ACGGGTAA | 0.174 |
| CAGCTTGG | -0.272 |
| ACCGCGTC | 0.0567 |
| TATCGTAA | 0.384 |
| AAAAGCAG | -0.146 |
| GGTGATAC | 0.0232 |
| ATTAGCAA | 0.00693 |

— the supplement of paper PMC3334620
